About 16,000 (4.4%) of roughly 360,000 compounds were called active. The shares of active, inactive and inconclusive entries below differ from those in the screen. Calls follow the shape of the dose curve; as a rule, active = well fitted inhibition curve with a large enough effect; inconclusive = small, poorly fitted or top-dose-only effect; inactive = no such curve, though single readings can be large or run the other way. Where the call is inconclusive, the potency comes from a doubtful curve fit.
target: Bromodomain adjacent to zinc finger domain protein 2B (Homo sapiens) (UniProt Q9UIF8); experiment: qHTS Assay for Inhibitors of BAZ2B; details: AlphaScreen BAZ2B-H3K14Ac peptide displacement; series mostly up to 114 µM; also: nearly all actives have a fitted effect of over 60% in size
Method in brief: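 BAZ2B (50 nM) with biotin-H3(5-23)K14Ac peptide (50 nM) in PBS pH 7.4, 0.01% Tween-20, preformed 30 min, then compound 30 min at room temperature; top concentration 110uM. AlphaScreen streptavidin donor/nickel chelate acceptor beads (10 ug/mL final), 20 min dark, signal read.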
Potency is read from the fitted curve at half-maximal effect; tags tell the direction and shape of the fitted curve.

UniProt Q9UIF8, sequence (Q9UIF8 whole entry, looked up, the tested form may be a part): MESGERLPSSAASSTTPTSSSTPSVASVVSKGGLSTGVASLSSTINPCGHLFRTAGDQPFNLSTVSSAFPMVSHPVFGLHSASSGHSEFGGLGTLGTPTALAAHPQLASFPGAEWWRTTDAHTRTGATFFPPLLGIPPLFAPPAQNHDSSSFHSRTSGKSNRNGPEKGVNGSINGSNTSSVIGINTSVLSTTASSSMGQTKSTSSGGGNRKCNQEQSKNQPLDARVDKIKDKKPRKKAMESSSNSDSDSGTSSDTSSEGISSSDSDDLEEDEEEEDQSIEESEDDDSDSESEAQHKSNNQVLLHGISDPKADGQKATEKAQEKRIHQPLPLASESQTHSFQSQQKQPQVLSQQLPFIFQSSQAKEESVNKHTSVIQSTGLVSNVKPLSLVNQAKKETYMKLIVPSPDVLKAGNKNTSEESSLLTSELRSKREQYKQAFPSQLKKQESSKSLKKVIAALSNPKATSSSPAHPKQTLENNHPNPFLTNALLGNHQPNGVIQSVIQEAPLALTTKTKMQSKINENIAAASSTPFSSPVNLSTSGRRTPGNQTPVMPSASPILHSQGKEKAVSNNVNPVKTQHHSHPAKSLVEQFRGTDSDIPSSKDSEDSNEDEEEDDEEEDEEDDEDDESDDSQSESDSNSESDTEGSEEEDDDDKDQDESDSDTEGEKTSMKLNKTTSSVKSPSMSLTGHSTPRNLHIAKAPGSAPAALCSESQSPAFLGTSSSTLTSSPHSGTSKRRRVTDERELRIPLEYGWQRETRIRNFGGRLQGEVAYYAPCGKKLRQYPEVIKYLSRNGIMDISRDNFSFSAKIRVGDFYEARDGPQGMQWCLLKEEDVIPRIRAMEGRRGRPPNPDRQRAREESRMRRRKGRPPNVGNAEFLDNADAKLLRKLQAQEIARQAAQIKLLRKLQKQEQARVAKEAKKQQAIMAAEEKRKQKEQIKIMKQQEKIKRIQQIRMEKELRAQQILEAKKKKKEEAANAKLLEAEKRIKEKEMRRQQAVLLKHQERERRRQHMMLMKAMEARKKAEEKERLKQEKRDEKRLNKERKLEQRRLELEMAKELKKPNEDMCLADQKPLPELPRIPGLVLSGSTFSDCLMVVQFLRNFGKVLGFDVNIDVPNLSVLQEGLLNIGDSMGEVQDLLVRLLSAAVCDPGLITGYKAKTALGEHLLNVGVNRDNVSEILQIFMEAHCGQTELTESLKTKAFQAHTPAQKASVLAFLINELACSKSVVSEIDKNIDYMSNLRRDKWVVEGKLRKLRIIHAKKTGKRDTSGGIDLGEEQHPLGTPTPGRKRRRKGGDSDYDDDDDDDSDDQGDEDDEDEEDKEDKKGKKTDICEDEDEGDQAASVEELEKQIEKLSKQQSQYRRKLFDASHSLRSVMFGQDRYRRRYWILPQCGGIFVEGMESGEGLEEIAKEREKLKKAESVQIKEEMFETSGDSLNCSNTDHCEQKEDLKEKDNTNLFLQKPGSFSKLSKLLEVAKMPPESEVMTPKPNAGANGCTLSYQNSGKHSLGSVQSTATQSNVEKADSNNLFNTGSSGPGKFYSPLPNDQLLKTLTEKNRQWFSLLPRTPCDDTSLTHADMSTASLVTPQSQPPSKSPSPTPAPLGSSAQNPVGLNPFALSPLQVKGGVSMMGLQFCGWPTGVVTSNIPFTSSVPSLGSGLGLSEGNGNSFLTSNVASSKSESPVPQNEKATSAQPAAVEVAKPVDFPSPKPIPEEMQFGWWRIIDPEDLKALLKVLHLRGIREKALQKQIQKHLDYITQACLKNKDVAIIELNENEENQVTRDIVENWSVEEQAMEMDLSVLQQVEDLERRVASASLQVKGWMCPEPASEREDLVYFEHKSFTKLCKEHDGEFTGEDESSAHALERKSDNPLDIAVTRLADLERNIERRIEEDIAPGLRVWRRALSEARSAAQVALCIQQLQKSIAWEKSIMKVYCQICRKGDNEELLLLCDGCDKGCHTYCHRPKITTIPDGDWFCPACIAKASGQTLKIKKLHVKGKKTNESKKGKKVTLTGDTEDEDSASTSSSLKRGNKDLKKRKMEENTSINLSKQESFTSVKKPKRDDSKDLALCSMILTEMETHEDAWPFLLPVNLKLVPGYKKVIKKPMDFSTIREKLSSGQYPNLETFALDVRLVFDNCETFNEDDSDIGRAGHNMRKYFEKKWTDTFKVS

SMILES | Potency
CCCCN(CCCC)C(=S)N/N=C/c1c(C)[nH]n(-c2ccccc2)c1=O | active: 10 µM
CCOCCCNC(=O)C1CCN(c2nc3ccc(Cl)cc3[nH]2)CC1 | inactive
O=C(c1cnn(-c2ccc(F)cc2)c1-n1cccc1)N1CCN(c2cccc(Cl)c2)CC1 | inconclusive: 70.8 µM [inhibitor, single point]
CCN(Cc1ccccc1)C(=O)COC(=O)c1n[nH]c2ccccc12 | inconclusive: 100 µM [inhibitor, single point]
Cc1ccc(N2CC(C(=O)Nc3ccc4c(c3)OCO4)CC2=O)cc1C (stereo unspecified) | inconclusive: 50.1 µM [inhibitor, partial curve]
CCCN(CCC)S(=O)(=O)c1cc2c3c(c1)CCN3C(=O)CC2 | inactive
CC(C)n1cc(C(=O)NC2CC(C)(C)Cc3c2cnn3-c2ccccc2)cn1 (stereo unspecified) | inactive
O=C(NC1CC1)C(=O)c1c[nH]c2ccccc12 | inconclusive: 89.1 µM [inhibitor, single point]
CC(C)(C)c1nnc(NC(=O)NS(=O)(=O)c2ccccc2)s1 | inconclusive: 100 µM [inhibitor, single point]
COc1ccc(-c2csc(NC(=O)CCn3cnc4ccccc4c3=O)n2)cc1OC | inactive
O=C(CCC(=O)Nc1ccccc1)N/N=C/c1ccncc1 | inactive
Cc1cc([N+](=O)[O-])nn1CCCC(=O)Nc1ccc2c(c1)OCO2 | inconclusive: 44.7 µM [inhibitor, partial curve]
Cc1cc(C)c(C)c(S(=O)(=O)N2CCC(C(=O)NCc3ccco3)CC2)c1C | inconclusive: 89.1 µM [inhibitor, single point]
COc1ccc(C(=O)N/N=C(/C)c2ccc(N3CCCCC3)cc2)cc1 | inactive
Cc1cc2ccccn2c1C(=O)c1ccc([N+](=O)[O-])o1 | active: 10 µM
O=[N+]([O-])c1ccccc1OCCNCc1ccccc1 | inconclusive: 79.4 µM [inhibitor, single point]
Cc1cc(N2CCN(C)CC2)nc2ccc(NC(=O)c3ccccc3F)cc12 | inconclusive: 79.4 µM [inhibitor, partial curve]
CCOc1cc(N2CCOCC2)c(OCC)cc1NC(=O)c1ccccc1C | inconclusive: 70.8 µM [inhibitor, single point]
Cc1ccc(NC(=O)CSc2nnc(C)c(=O)n2N)c(C)c1 | active: 50.1 µM
O=C1c2ccccc2C(O)(c2ncc[nH]2)N1CCc1ccccc1 (stereo unspecified) | inconclusive: 89.1 µM [inhibitor, single point]
Cc1ccc(NC(=O)NC2CCCCC2)cc1Cl | inactive
COCCn1cc(-c2csc(N)n2)c2ccccc21 | inconclusive: 50.1 µM [inhibitor, partial curve]
COc1ccc(C2(CNC(=O)c3cccc([N+](=O)[O-])c3)CCOCC2)cc1 | inactive

SMILES | Potency
COc1cc2c(C(=O)Nc3ccc4c(c3)OCO4)cn(CC(C)C)c(=O)c2cc1OC | inconclusive: 79.4 µM [inhibitor, single point]
CCc1ccccc1NC(=O)CCCn1c(=O)c2cccn2c2ccccc21 | inconclusive: 70.8 µM [inhibitor, single point]
CCN(Cc1ccc(NC(C)=O)cc1)CC1CCCN(CCc2cccc(OC)c2)C1 (stereo unspecified) | inconclusive: 89.1 µM [inhibitor, single point]
C/C(=N/Nc1nc(-c2ccccc2)cc(-c2ccccc2)n1)c1ccc(N)cc1 | inconclusive: 35.5 µM [inhibitor, partial curve]
O=c1/c(=C/c2cccc3ccccc23)sc2ncnn12 | inconclusive: 100 µM [inhibitor, single point]
O=C1NC(c2ccccc2)C(C(=O)c2cccs2)=C1O (stereo unspecified) | inactive
COc1ccc(NC(=O)c2cccs2)cc1 | inactive
Cc1cc(/C=C(\C#N)C(N)=O)c(C)n1-c1ccc(N2CCOCC2)c([N+](=O)[O-])c1 | inconclusive: 79.4 µM [inhibitor, single point]
O=S(=O)(NCc1ccc(F)cc1)c1ccc2[nH]c3c(c2c1)CCCC3 | inconclusive: 44.7 µM [inhibitor, partial curve]
Cc1ccc(NC(=O)CN(C)C(=O)c2cc(-c3cccs3)nn2-c2ccccc2)cc1 | inactive
CC(=O)c1ccc(NC(=O)c2ccc3nc(-c4ccco4)c(-c4ccco4)nc3c2)cc1 | active: 11.2 µM
CCN1CCN(c2ccc(S(=O)(=O)N3CCCCC3)cc2NC(=O)c2cccc(Cl)c2)CC1 | inconclusive: 79.4 µM [inhibitor, single point]
Cc1ccccc1NC(=S)NC(NC(=O)N(C)C)C(Cl)(Cl)Cl (stereo unspecified) | inconclusive: 89.1 µM [inhibitor, single point]
COc1ccc(/C(O)=C/C(=O)C(=O)Nc2c(C)n(C)n(-c3ccccc3)c2=O)cc1 | inconclusive: 89.1 µM [inhibitor, single point]
Cc1ccc(C(=O)Nc2ncc(C)s2)o1 | inactive
COCCCN1C(=O)C(=O)/C(=C(/O)c2ccc(S(=O)(=O)N3CCOCC3)cc2)C1c1cccc(Cl)c1 (stereo unspecified) | inactive
CCCCn1cnc2c(c(-c3ccccc3)c(-c3ccccc3)n2Cc2ccco2)c1=N | inconclusive: 39.8 µM [inhibitor, partial curve]
N#Cc1c(N2CCN(C(=O)c3ccccc3)CC2)nc(-c2ccccc2)c2c1CCCC2 | inactive
CCOc1ccccc1NC(=S)N1CCN(c2nc(-c3cccc(OC)c3)cs2)CC1 | inconclusive: 79.4 µM [inhibitor, partial curve]
O=C1CC(Nc2ccc(N3CCOCC3)cc2)C(=O)N1c1cccc(C(F)(F)F)c1 (stereo unspecified) | active: 56.2 µM
Cc1cc(C(=O)OCC(=O)N2CC(=O)Nc3ccccc32)c(C)n1-c1ccc(F)cc1 | inconclusive: 44.7 µM [inhibitor, partial curve]
O=[N+]([O-])c1ccc(NCCNCCOc2nonc2-c2ccccc2)c([N+](=O)[O-])c1 | inconclusive: 10 µM [inhibitor, full curve]
CC1CCN(Cc2cc(=O)oc3ccc(C(C)C)cc23)CC1 | inactive

— PubChem BioAssay AID504333 (National Center for Advancing Translational Sciences (NCATS), 2011)
